From US7884103B2 (priority 2003, dated 2011)
Where two headings read alike, the source gives them in different places.

Experiments:
Experiment in all cases: whole plant or invertebrate
[1] = system: Phytophthora on tomato plants; conditions: read-out: inhibition of fungal infestation
Protocol: (§1) D-2: Action Against Phytophthora on Tomato Plants
a) Residual-protective action
(§2) After a cultivation period of 3 weeks, tomato plants are sprayed with a spray mixture (0.02% active ingredient) prepared from a wettable powder formulation of the test compound. After 48 hours, the treated plants are infected with a sporangia suspension of the fungus. Fungus infestation is evaluated after incubation of the infected plants for 5 days at 90-100% relative humidity and +20° C.

[2] = system: Phytophthora on tomato plants; conditions: soil, read-out: inhibition of fungal infestation
Protocol: as §1
as §2, with “watered” for “sprayed”, “ingredient based on the volume of the soil)” for “ingredient)”, “compound. […]” for “compound.”, “96” for “48”, “4” for “5”

[3] = system: Phytophthora on potato plants; conditions: read-out: inhibition of fungal infestation
Protocol: (§3) D-3: Action Against Phytophthora on Potato Plants
a) Residual-Protective Action
(§4) 2-3 week old potato plants (Bintje variety) are sprayed with a spray mixture (0.02% active ingredient) prepared from a wettable powder formulation of the test compound. After 48 hours, the treated plants are infected with a sporangia suspension of the fungus. Fungus infestation is evaluated after incubation of the infected plants for 4 days at 90-100% relative humidity and +20° C.

[4] = system: Phytophthora on potato plants; conditions: soil, read-out: inhibition of fungal infestation
Protocol: as §3
as §4, with “watered” for “sprayed”, “ingredient based on the volume of the soil)” for “ingredient)”, “compound. […]” for “compound.”, “C. Fungal infestation is effectively controlled with compounds of Table 1.” for “C.”

## CCOc1ccc(OCC(C)(NS(=O)(=O)Cc2ccccc2)C(=O)OC)cc1 (stereo not drawn) [compound 082, 3-(4-Ethoxy-phenoxy)-2-methyl-2-phenylmethanesulfonylamino-propionic Acid Methyl Ester]
[1]
  inhibition at 200 ppm: 80 to 100%
[2]
  inhibition at 200 ppm: 80 to 100%

## CCOc1ccc(OCC(C)(NS(=O)(=O)Cc2ccccc2)C(=O)N(C)OC)cc1 (stereo not drawn) [compound 083, 3-(4-Ethoxy-phenoxy)-N-methoxy-2,N-dimethyl-2-phenylmethanesulfonylamino-propionamide]
[1]
  inhibition at 200 ppm: 80 to 100%
[2]
  inhibition at 200 ppm: 80 to 100%

## C#CCNC(=O)C(C)(COc1ccc(OCC)cc1)NS(=O)(=O)Cc1ccccc1 (stereo not drawn) [compound 087, 3-(4-Ethoxy-phenoxy)-2-methyl-2-phenylmethanesulfonylamino-N-prop-2-ynyl-propionamide]
[3]
  inhibition at 200 ppm: 60 to 100%
[4]
  inhibition at 200 ppm: 60 to 100%
[1]
  inhibition at 200 ppm: 80 to 100%
[2]
  inhibition at 200 ppm: 80 to 100%

## CC(COc1ccc(-n2cncn2)cc1)(NS(=O)(=O)Cc1ccccc1)C(=O)O (stereo not drawn) [compound 100, 2-Methyl-2-phenylmethanesulfonylamino-3-(4-[1,2,4]triazol-1-yl-phenoxy)-propionic Acid]
[3]
  inhibition at 200 ppm: 60 to 100%
[4]
  inhibition at 200 ppm: 60 to 100%
[1]
  inhibition at 200 ppm: 80 to 100%
[2]
  inhibition at 200 ppm: 80 to 100%
